Measured values as given in publication PMC6919601, “Identification of Plasmodium dipeptidyl aminopeptidase allosteric inhibitors by high throughput screening” (PLoS ONE, 2019).
Hit rate of the full screen: of about 110,000 compounds, about 230 (0.21%) showed an effect of 50% or more. The list shows a part of the results.

Molecular target: DPAP1 (Plasmodium falciparum, UniProt Q8IIJ9)
Test: primary screen, percent inhibition; read by cleavage of a fluorogenic dipeptide substrate; higher = more effect of the substance
Design: species or system P. falciparum D10 trophozoite lysates; single well
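Also: 30 min substrate incubation versus DMSO and 10 µM JCP410 controls.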

Chain of DPAP1 (Q8IIJ9 whole entry, looked up): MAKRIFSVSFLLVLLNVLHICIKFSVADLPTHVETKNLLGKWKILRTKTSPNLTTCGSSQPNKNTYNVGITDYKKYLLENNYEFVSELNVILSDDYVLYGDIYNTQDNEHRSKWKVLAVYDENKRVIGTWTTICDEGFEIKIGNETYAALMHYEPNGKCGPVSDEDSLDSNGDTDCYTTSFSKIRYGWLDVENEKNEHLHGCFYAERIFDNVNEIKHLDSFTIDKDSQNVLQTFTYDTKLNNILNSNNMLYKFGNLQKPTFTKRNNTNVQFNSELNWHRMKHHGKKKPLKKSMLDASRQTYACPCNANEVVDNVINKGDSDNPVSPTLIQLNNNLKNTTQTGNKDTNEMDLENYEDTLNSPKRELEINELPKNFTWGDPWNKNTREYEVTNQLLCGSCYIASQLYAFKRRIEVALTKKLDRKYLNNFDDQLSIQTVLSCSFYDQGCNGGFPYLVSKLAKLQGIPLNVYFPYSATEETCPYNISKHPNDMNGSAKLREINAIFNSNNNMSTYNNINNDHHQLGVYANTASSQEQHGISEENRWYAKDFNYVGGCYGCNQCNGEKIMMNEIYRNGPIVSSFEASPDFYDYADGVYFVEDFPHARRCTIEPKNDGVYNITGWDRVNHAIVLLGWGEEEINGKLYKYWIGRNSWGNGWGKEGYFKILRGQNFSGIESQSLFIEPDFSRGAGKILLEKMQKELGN

| SMILES | % Inhibition @ 10 uM |
| --- | --- |
| COCc1cc(C2SCC(=O)Nc3c2c(O)nn3C2CCOC(C)(C)C2)ccc1OC (stereo not drawn) | -5.91% |
| Cc1ccsc1CN1CCCN(C)CC1 | 4.57% |
| O=C(/C=C/c1ccccc1)NCC1CCCO1 (stereo not drawn) | -0.414% |
| CCOc1ccccc1CNCc1c(C(=O)O)n(CC)c2cc(C)ccc12 | -3.6% |
| Cc1c(CN2CC=C(c3ccc(F)cc3)CC2)c(=O)n(-c2ccccc2)n1C | -4.95% |
| Cc1[nH]c2ccccc2c1C(=O)/C=C/c1ccc(Br)cc1 | 13.6% |
| O=C(Nc1ccc(F)cc1)c1ccccc1C(=O)OCC(Cl)=C(Cl)Cl | 1.7% |
| COc1ccc(C(=O)c2oc3ccccc3c2NC(=O)c2ccccc2F)cc1 | -1.11% |
| COc1cc(CN2CCC3(C=Cc4ccccc43)CC2)cc(OC)c1O | -3.42% |
| O=C(NC1CCN(Cc2ccccc2)CC1)C1CCCN(c2ncnc3c2nc2n3CCCCC2)C1 (stereo not drawn) | 1.19% |
| CCOc1ccc(NC(=O)c2ccc(Br)o2)cc1 | -2.09% |
| CCC(C)C(=O)Nc1ccc(-c2nc3ccccc3[nH]2)cc1 (stereo not drawn) | -4.7% |
| COc1ccc2c(c1)c(=O)oc1cc3oc4c(c3cc12)CCCC4 | 2.54% |
| CC(C)CCNC(=O)CSc1nc2cccnc2[nH]1 | -1.99% |
| NCC1c2ccccc2C=Cc2ccc(Cl)cc21 (stereo not drawn) | -6.37% |
| CCC(=O)NC(C)c1nc2ccccc2n1Cc1cc(C)ccc1C (stereo not drawn) | 2.83% |
| O=C(Nc1cccc(O)c1)c1ccc(Oc2ccc(C(=O)Nc3cccc(O)c3)cc2)cc1 | -1.2% |
| Cc1nn(-c2ccccc2)c(-n2cccc2)c1C(=O)NCC(C)c1ccccc1 (stereo not drawn) | 0.137% |
| CCOc1ccc(N2C(=O)c3ccccc3NC2c2cc(OC)c(OCC(N)=O)cc2Cl)cc1 (stereo not drawn) | -3.5% |
| C=CCNC(=O)c1c(C)c(C(=O)OCC)n(C)c1C | 1.72% |
| CN(CCc1ccccc1)Cc1ccccn1 | -3.37% |
| Cn1ncc(Br)c1C(=O)NCc1ccc2c(c1)OCO2 | -2.84% |
| NC(=O)NC(=O)CSc1ncnc2sc3c(c12)CCCC3 | 5.29% |
| CCC(=O)Nc1ccc(OCc2nc3ccccc3s2)cc1 | -1.82% |
| Cn1cc(CNC(=O)c2cc(-c3ccccc3)nc3ccc(Br)cc23)cn1 | -1.95% |
| COc1ccc(C2=NC(=O)/C(=C\c3cccc(F)c3)O2)cc1 | 0.413% |
| COc1cccc(OCCCCN2CCCC2)c1 | -3.42% |

| SMILES | % Inhibition @ 10 uM |
| --- | --- |
| C1CSC2(N1)C1CC3CC2CC(C1)C31NCCS1 (stereo not drawn) | 1.29% |
| CCCNC(=O)c1ccc(C2SCC(=O)N2CCc2ccccc2)cc1 (stereo not drawn) | -2.76% |
| Cc1cc2oc(=O)cc(C)c2c2occ(-c3ccc(F)cc3)c12 | -1.15% |
| COc1ccc(OC)c(C2C(C#N)=C(N)Oc3nc(C)nc(O)c32)c1 (stereo not drawn) | -1.22% |
| COc1ccc(OCCn2cc(C(C)=O)c3ccccc32)cc1 | -3.5% |
| CC(=O)Nc1ccc(S(=O)(=O)N(C2CCCC2)C2CCCC2)cc1 | 7.15% |
| CCc1nn(CC(=O)NCCCN(C)Cc2ccccc2)c(=O)c2cc3occc3n12 | 1.38% |
| COc1cc(F)c(C[C@H](NC(=O)OCc2ccccc2)C(=O)NCC#N)c(F)c1 | -0.406% |
| CC1CCN(S(=O)(=O)c2cc(Cl)ccc2Br)CC1 | -6.08% |
| CCOC(=O)c1cc2c(=O)n3ccccc3nc2n(CC2CCCO2)/c1=N/C(=O)/C=C/c1ccccc1 (stereo not drawn) | -5.57% |
| CN(Cc1ccco1)S(=O)(=O)c1nnc(NC(=O)c2cccs2)s1 | -0.959% |
| Clc1cccc(OCCN2CCCC2)c1 | 0.565% |
| COc1ccc(C(=O)NC(Cc2ccccc2)c2ccc3c(c2)OCCCO3)cc1 (stereo not drawn) | -1.28% |
| Cc1cc(N2C(=O)c3cc(Cl)c(Cl)cc3C2=O)no1 | 0.408% |
| CCCCc1nnc2sc(NC(=O)COc3ccc(C)cc3)nn12 | 1.39% |
| COc1ccccc1CNC(=O)CCCn1nc(C)n2ccnc2c1=O | 3.3% |
| CC1=C(CCN2CCCCC2CO)C(C)(C)CCC1 (stereo not drawn) | -0.0648% |
| COc1ccc(CNC2CCN(C)CC2)c(OC)c1 | -2.21% |
| CC(C)(C)C(=O)NCCc1nc2ccccc2n1CC(=O)c1ccccc1 | -2.01% |
| Cc1cc(=O)n(Cc2cc(=O)n3ccccc3n2)c2c1c(C)nn2-c1cccc(F)c1 | 1.81% |
| COc1ccc(NC(=O)CN(c2cccc3ccccc23)S(C)(=O)=O)cc1Cl | -4.13% |
| Cc1ccc(NC(=O)COc2ccccc2)cc1O | -0.318% |
| O=S(=O)(NCC(c1ccccc1)N1CCNCC1)c1ccccc1 (stereo not drawn) | -2.28% |
| COc1ccc(C(=O)NCCN2CCN(C(=O)c3ccc(OC)cc3)CC2)cc1 | -2.76% |
| CCCOc1ccc(C2C(=O)N(C3CCC(C)CC3)CC(=O)N2C2CCCC2)cc1OC (stereo not drawn) | 2.79% |
| O=C1NC(=O)C(=Cc2c[nH]c3ccc(OCc4ccccc4)cc23)C(=O)N1 | -1.1% |
| O=C1CCCN1CC(CN1CCOCC1)Sc1nnnn1-c1ccccc1 (stereo not drawn) | -3.06% |

| SMILES | % Inhibition @ 10 uM |
| --- | --- |
| CC(C)CCNC(=O)[C@H](Cc1ccccc1)N1Cc2ccccc2C1=O | -2.25% |
| O=C1NC(=S)N/C1=C\c1cccc2ccccc12 | -1.2% |
| CCOc1ccc(CCNS(=O)(=O)c2ccc(-c3ccc(O)nn3)o2)cc1OCC | 5.57% |
| COc1ccc(CCNC(=O)CCc2c(C)c3ccc(O)cc3oc2=O)cc1OC | 0.895% |
| CCC(C)NC(=O)CN1C(=O)C(c2ccccc2)Oc2cccnc21 (stereo not drawn) | -2.39% |
| O=C(O)c1cc(C(=O)O)c2ccccc2n1 | -6.32% |
| COc1ccc(Cl)cc1C(=O)NCc1cn(C)nc1C | 0.115% |
| CC1=C(C(=O)OCC(F)(F)F)C(c2ccc(F)cc2)NC(=O)N1 (stereo not drawn) | -0.0804% |
| CC(C)Oc1ccc(C(CC(=O)O)NC(=O)CCCc2ccccc2)cc1 (stereo not drawn) | -2.5% |
| NC(=O)c1cc(S(=O)(=O)N(Cc2ccc(F)cc2)Cc2cccnc2)cs1 | 0.879% |
| COc1ccccc1N1CCN(C(=O)C2CCCO2)CC1 (stereo not drawn) | -5.6% |
| CC(C)(C)c1cc(Br)cc(C=O)c1O | -1.77% |
| Cc1ccc(C(=O)/C=C\Nc2cc(C)on2)cc1 | -1.06% |
| CC1=NN2C(=N)/C(=C\c3ccc(OCc4cc(=O)n5nc(C)sc5n4)c(Cl)c3)C(=O)N=C2S1 | -9.6% |
| CC(C)c1ccc(NC2CC(=O)N(c3ccc(F)cc3)C2=O)cc1 (stereo not drawn) | -4.06% |
| COc1ccc(Br)cc1CN1CCSCC1 | 1.38% |
| O=C([C@H](Cc1ccccc1)N1Cc2ccccc2C1=O)N1CCN(Cc2ccccc2)CC1 | 4.54% |
| CC(=O)N1CCC(=O)N1c1ccccc1 | -0.744% |
| COCCNC(=O)c1cc2sc(Cl)cc2n1C | 0.291% |
| CC(=O)Nc1ccc(NC(=O)CCN2C(=O)c3ccccc3C2=O)cc1 | 1.7% |
| O=C(NCc1cccs1)C1CC(=O)N(c2ccc(F)cc2)C1 (stereo not drawn) | 1.71% |
| CN1CCC(N2CCN(c3ccc([N+](=O)[O-])cc3)CC2)CC1 | 3.18% |
| CCOC(=O)c1c(NC(=O)CC2NCCNC2=O)sc2c1CCCC2 (stereo not drawn) | 1.72% |
| Clc1ccccc1CNCc1ccc2c(c1)OCO2 | -17.9% |
| COc1ccc(Br)cc1C1N(c2ccccn2)C(=O)C2CCCN21 (stereo not drawn) | 1.23% |
| Cn1c(C(=O)NCCc2ccc(Cl)cc2)cc2sccc21 | -3.08% |
| CSc1ccc(CN2CCCC(O)C2)cc1 (stereo not drawn) | -3.56% |

| SMILES | % Inhibition @ 10 uM |
| --- | --- |
| Cc1ccc(C(=O)NCCc2ccc(S(N)(=O)=O)cc2)cc1C | -7.83% |
| O=C(CSc1nc2ccccc2[nH]1)NCCC1=CCCCC1 | 4.61% |
| CCOc1ccccc1CNC(=O)c1c(C)nn(-c2ccc(F)cc2)c1-n1cccc1 | -8.99% |
| CCCc1[nH]nc2c1C(c1ccccc1OC(F)F)C(C#N)=C(N)O2 (stereo not drawn) | 0.673% |
| CC(C)(C)OC(=O)N[C@@H](CSCc1ccccc1)C(=O)NCC#N | -0.214% |
| CC1=NN(C(=O)COc2ccccc2C)C(O)(c2cccnc2)C1 (stereo not drawn) | 4.05% |
| S=C(Nc1ccc(Cl)cc1)N1CCN(Cc2ccccc2)CC1 | -4.32% |
| CCC(O)c1nc2ccccc2n1CCOc1ccccc1Cl (stereo not drawn) | -4.91% |
| COCC(=O)Nc1nc2ccccc2s1 | 5.3% |
| CC1=C(C(=O)OCCOC(C)C)C(c2ccccc2C(F)(F)F)CC(=O)N1 (stereo not drawn) | -1% |
| CNCc1ccccc1Sc1ccc(O)c(O)c1 | -7.1% |
| Cc1cc(-c2ccccc2)n(-c2ccc(C(=O)NC(C)C)cc2)n1 | 0.389% |
| COc1ccccc1N1CCN(C(=O)CSCc2ccccc2C)CC1 | -5.34% |
| CCOc1cc2c(cc1OC)C(c1ccccc1F)NCC2 (stereo not drawn) | 2.49% |
| COc1cccc(OC)c1C(=O)N1CCCCCC1 | -3.35% |
| O=C1C2C3C=CC(O3)C2C(=O)N1c1ccc(Cl)cc1Cl (stereo not drawn) | -0.67% |
| Cn1cnc2c(=O)oc3ccc(S(=O)(=O)N4CCN(c5ccccn5)CC4)cc3c21 | -0.602% |
| COc1ccccc1-n1c(CCC(=O)O)ccc1-c1ccccc1 | 6.73% |
| Cc1ccc(NC(=O)C2COc3ccccc3O2)cc1C (stereo not drawn) | 11.6% |
| CC1CCc2c(sc3nc(-c4cccs4)oc(=O)c23)C1 (stereo not drawn) | 3.48% |
| CCOc1cc(CNCCc2ccc(Cl)cc2)ccc1OC | -0.999% |
| N=C1/C(=C\c2ccc(SCc3ccco3)o2)C(=O)N=C2SC(Cc3ccccc3)=NN12 | 0.458% |
| O=C(O)CCc1nc2cc(C(=O)O)ccc2[nH]1 | -2.14% |
| CCC1=NN(C(=O)c2ccccc2OC)C(O)(c2ccc(OC)cc2)C1 (stereo not drawn) | -1.02% |
